Experimental findings from the supplement of paper PMC9446081 are described below.

Screen size: about 39,000 compounds; about 220 (0.56%) showed activity. The list shows a part of the results.
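Also: static incubation at 37 °C against the wild-type strain, values averaged over two biological replicates.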

The subject of this test is Escherichia coli K-12 BW25113. The experiment in a line: relative growth (OD600 normalised to plate interquartile mean) (fraction); higher = less growth inhibition, active = 0.2 or less. The settings on record: 50 µM; LB; incubation time: overnight (16-24 h).
`C[C@H](NC(=O)C[C@H]1CC[C@@H](NC(=O)CN2CCOCC2)[C@H](CO)O1)c1ccccc1`: the relative growth is inactive: 0.976. On to `Cc1noc(C)c1NC(=O)N(C)C[C@@H]1Oc2ccc(NS(=O)(=O)c3ccccc3)cc2CC(=O)N([C@@H](C)CO)C[C@@H]1C`, for which the relative growth is inactive: 0.993.

For the molecule `C[C@@H]1CCCCO[C@@H](CN(C)Cc2ccc(Cl)c(Cl)c2)[C@@H](C)CN([C@@H](C)CO)C(=O)c2cc(NS(=O)(=O)c3ccc(Cl)cc3)ccc2O1`, the relative growth was inactive: 0.997. With `C=CC[C@@H](CC(=O)N[C@@H](CO)Cc1ccccc1)C(=O)N[C@H](C)COC(=O)[C@H](CC=C)CC(=O)OC(C)(C)C`, the relative growth was inactive: 1.

On to `C[C@@H]1CN([C@H](C)CO)C(=O)Cc2cc(NC(=O)CCCN(C)C)ccc2O[C@H]1CN(C)Cc1ccc(Oc2ccccc2)cc1`, for which the relative growth was inactive: 0.997. For the molecule `COc1ccccc1C#Cc1ccc2c(c1)O[C@H](CN(C)Cc1ccncc1)[C@H](C)CN([C@@H](C)CO)S2(=O)=O`, the relative growth is inactive: 1.02. Take `C[C@@H]1CN([C@H](C)CO)C(=O)c2cc(NC(=O)CCCN(C)C)ccc2O[C@H]1CN(C)S(=O)(=O)c1cccs1`: the relative growth is inactive: 0.827.

In the case of `C[C@@H]1CN([C@H](C)CO)C(=O)c2cccc(NC(=O)C3CCOCC3)c2O[C@@H]1CN(C)Cc1ccc(C(=O)O)cc1`, the relative growth was inactive: 1.01. For `Cn1cnc(S(=O)(=O)N2C[C@@H](O)COC[C@@H]3O[C@@H](CC(=O)NC4CCCC4)CC[C@H]32)c1`, the relative growth is inactive: 1.02. Then `C[C@@H]1CN([C@H](C)CO)S(=O)(=O)c2ccc(Br)cc2O[C@@H]1CN(C)Cc1ccc(-c2ccccc2)cc1`, with inactive: 1.03; and `Cn1c(=O)n(C)c2cc(S(=O)(=O)N3CC[C@H]4CNC[C@H]43)ccc21`, with inactive: 0.987. For the molecule `C#CC1(O)CCC2C3CCC4=C(CCC(=O)C4)C3CCC21C` (stereo unspecified), the relative growth was inactive: 1.15.

As for `CC(C)NC(=O)Nc1ccc2c(c1)C(=O)N([C@H](C)CO)C[C@@H](C)[C@H](CN(C)S(=O)(=O)c1ccccc1)O2`, the relative growth was inactive: 0.982. Turning to `CN(C)CCCNC(=O)C[C@@H]1CC[C@@H]2[C@@H](COc3ccc(NC(=O)c4ccc5c(c4)OCO5)cc3C(=O)N2C)O1`, the relative growth was inactive: 1. Then `COc1ccc(S(=O)(=O)Nc2ccc3c(c2)C(=O)N([C@@H](C)CO)C[C@@H](C)[C@@H](CN(C)Cc2ccc(C(=O)O)cc2)OCCCC[C@@H](C)O3)cc1`, with inactive: 0.881.

`C[C@@H]1CN([C@H](C)CO)C(=O)c2cc(NC(=O)CCC(F)(F)F)ccc2O[C@H]1CN(C)S(C)(=O)=O`: the relative growth was inactive: 0.971. As to `COc1cccc(NC(=O)N(C)C[C@@H]2Oc3cc(C#CC4(O)CCCC4)ccc3S(=O)(=O)N([C@H](C)CO)C[C@@H]2C)c1`, the relative growth is inactive: 1.01. Turning to `COc1ccc(NC(=O)N(C)C[C@@H]2Oc3cc(C#CCN(C)C)ccc3S(=O)(=O)N([C@@H](C)CO)C[C@@H]2C)cc1`, the relative growth was inactive: 1.02. With `C[C@H](CO)N1C[C@H](C)[C@@H](CN(C)S(=O)(=O)c2cn(C)cn2)OCCCC[C@H](C)Oc2ccc(NC(=O)Nc3ccc(C(F)(F)F)cc3)cc2C1=O`, the relative growth is inactive: 1.03. Then `COCC(=O)Nc1ccc2c(c1)C(=O)N(C)C[C@H](OC)[C@H](C)CN(Cc1ccccc1F)[C@H](C)CO2`, with inactive: 0.991; and `COCC#Cc1ccc2c(c1)O[C@@H](CN(C)S(=O)(=O)c1ccc(C)cc1)[C@H](C)CN([C@@H](C)CO)S2(=O)=O`, with inactive: 1.01. Take `CC(C)NC(=O)Nc1ccc2c(c1)C(=O)N([C@H](C)CO)C[C@H](C)[C@@H](CN(C)Cc1ccc(Oc3ccccc3)cc1)O2`: the relative growth is inactive: 0.966. With `C[C@@H]1CN([C@H](C)CO)C(=O)Cc2cc(NS(=O)(=O)c3ccccc3)ccc2O[C@H]1CN(C)S(=O)(=O)c1cccs1`, the relative growth is inactive: 0.995. As to `O=C(NCc1ccc(S(=O)(=O)N2CCOCC2)s1)c1cccnc1C(=O)N1CCOCC1`, the relative growth was inactive: 1. For `O=C(O)C(S)C(S)C(=O)O` (stereo unspecified), the relative growth is inactive: 0.664. As to `O=C(O)c1ccc[nH]1`, the relative growth is inactive: 1.01.

Regarding `CCn1nc(C(=O)O)c(=O)c2cc3c(cc21)OCO3`, the relative growth is active: 0.0537. Regarding `CNC(=C[N+](=O)[O-])NCCSCc1ccc(CN(C)C)o1.Cl`, the relative growth was inactive: 1.09.

`COc1ccc(S(=O)(=O)N(C)C[C@@H]2Oc3ccc(NS(=O)(=O)c4ccc(C)cc4)cc3C(=O)N([C@H](C)CO)C[C@H]2C)cc1`: the relative growth was inactive: 1.04.

Turning to `O=C1N(CCS(=O)(=O)c2ccccc2)Cc2ccccc2C[C@@]12COC(c1ccc(OCCCO)cc1)=N2`, the relative growth was inactive: 1.04.

On to `C[C@@H]1CN([C@H](C)CO)C(=O)c2cc(C3=CCCC3)cnc2O[C@H]1CN(C)S(=O)(=O)c1cn(C)cn1`, for which the relative growth was inactive: 1. On to `C[C@H]1CN([C@@H](C)CO)S(=O)(=O)c2ccc(C#Cc3ccccc3)cc2O[C@H]1CN(C)S(=O)(=O)c1cn(C)cn1`, for which the relative growth is inactive: 1.03. Regarding `O=C(C[C@@H]1CC[C@H]2[C@@H](COC[C@@H](O)CN2C(=O)c2ccncc2)O1)NCc1ccc(-c2ccccc2)cc1`, the relative growth is inactive: 1.02. Regarding `COc1ccc2c3c(n(c2c1)C)[C@@H](CO)N(C[C@]13CCN(CC1)C(=O)CN(C)C)C(=O)C1CCCCC1`, the relative growth is inactive: 0.994. For `Cc1noc(C)c1NC(=O)N(C)C[C@H]1Oc2ccc(NS(=O)(=O)c3ccccc3)cc2CC(=O)N([C@@H](C)CO)C[C@@H]1C`, the relative growth was inactive: 1.01. Then `C[C@@H]1CCCCO[C@H](CN(C)C)[C@H](C)CN([C@@H](C)CO)C(=O)c2cc(NC(=O)Nc3ccc(C(F)(F)F)cc3)ccc2O1`, with inactive: 0.982; and `CC(C)NC(=O)Nc1ccc2c(c1)C(=O)N([C@H](C)CO)C[C@@H](C)[C@@H](CN(C)S(=O)(=O)c1cn(C)cn1)OCCCC[C@H](C)O2`, with inactive: 1.02.

Regarding `C=c1nc(C)sc1=C1NN=C(N)O1`, the relative growth was inactive: 1.02. `CCc1[nH]c(=S)[nH]c(=O)c1C#N`: the relative growth was inactive: 1.02. For `CC(C)NC(=O)N(C)C[C@H]1OCCCC[C@H](C)Oc2ccc(NC(=O)C3CCCCC3)cc2C(=O)N([C@@H](C)CO)C[C@@H]1C`, the relative growth is inactive: 1.

On to `CC(C)NC(=O)Nc1ccc2c(c1)C(=O)N([C@H](C)CO)C[C@@H](C)[C@H](CN(C)Cc1ccc(-c3ccccc3)cc1)O2`, for which the relative growth was inactive: 1.01.
